Laboratory results: PubChem BioAssay AID651820 (National Center for Advancing Translational Sciences (NCATS), 2012)
Values joined by “and” are separate entries in the source; they are usually repeats but may differ in a detail not shown here. Equal entries are not always repeated. The campaign covered roughly 340,000 compounds. About 12,000 (3.5%) were called active. Inconclusive means that the source gave no clear call. Such entries were picked first, then a sample of the others. Calls follow the shape of the dose curve; as a rule, active = well fitted inhibition curve with a large enough effect; inconclusive = small, poorly fitted or top-dose-only effect, or another doubt; inactive = no such curve, though single readings can be large or run the other way. Potencies of inconclusive entries are doubtful fits and often do not repeat.

Test: qHTS Assay for Inhibitors of Hepatitis C Virus (HCV)
Settings: Huh7.5.1 HCVcc-Cre (HCVcc is cell-culture hepatitis C virus) infection, luciferase reporter, 44 h; activity change, negative = inhibition: at 41.8 µM (top of the series) unless noted
Method in brief: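 HCVcc-Cre virus at an moi near 0.5 was added right after compound to cells cultured 4 h from seeding (1,000 cells/well). Luciferase activity was determined 44 h later, 15 min after substrate addition at RT.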
% is scaled to controls: 0 for no effect and ±100 for the full control effect; potency is read from the fitted curve at half-maximal effect; tags tell the direction and shape of the fitted curve.

Structure (SMILES) | Potency | activity change, negative = inhibition
O=C(Nc1ccc(Nc2ccccc2)cc1)c1ccc(Cl)cc1 | inconclusive: 12.6 µM [inhibitor, single point] | –
O=C1C(Cl)=C(NCCCO)C(=O)c2ccccc21 | active: 12.6 µM | –
Cc1c(-c2ccccc2)nnn1-c1ccc(F)cc1F | – | inactive: -5.76%
N#C/C(=C\c1ccc[nH]1)C(=O)Nc1ccccc1Cl | – | inactive: 5.02%
O=S(=O)(c1ccc(Cl)cc1)N1CCCC(c2nc(-c3ccc(F)cc3)no2)C1 (configuration not stated) | – | inactive: 13.3%
O=C1c2ccccc2C(=O)N1C1C(=O)N2CCSC12C(=O)OCc1ccccc1 (configuration not stated) | – | inactive: 22.1%
Cc1ccc(CNC(=O)c2oc3ccc(S(=O)(=O)N4CCC5(CC4)OCCO5)cc3c2C)cc1 | inconclusive: 12.6 µM [inhibitor, single point] and inconclusive: 31.6 µM [inhibitor, single point] | –
c1ccc(NCc2nc3ccccc3n2CCOc2ccccc2)cc1 | inconclusive: 8.91 µM [inhibitor, partial curve] | –
CCOC(=O)C1CCCN(C(=O)C(C)Oc2ccc(Cl)cc2Cl)C1 (configuration not stated) | inconclusive: 31.6 µM [inhibitor, single point] | –
Cc1cc(NC(=O)CCC(=O)N(c2ccccc2)C(C(=O)NC2CCCC2)c2ccc(F)cc2)no1 (configuration not stated) | – | inactive: 1.24%
Cc1ccc(CC2C(=O)N(c3nc(C)cc(C)n3)C(=O)C2C)cc1 (configuration not stated) | – | inactive: 16.4%
CCn1c(O)c(/C=N/N2CCOCC2)c(=O)n(CC)c1=S | – | inactive: -6.33%
Cc1ccc(S(=O)(=O)N(CC(=O)Nc2cccnc2)c2cccc(Br)c2)cc1 | inconclusive: 31.6 µM [inhibitor, single point] | –
COc1ccc(NC(=O)CN(C)C(=O)/C=C/c2cn(-c3ccccc3)nc2-c2ccc(F)cc2)cc1 | inconclusive: 22.4 µM [inhibitor, single point] | –
Cc1[nH]c(=S)c(C#N)c(-c2ccco2)c1C(=O)N(C)C | – | inactive: 9.93%
Cc1cccc(-n2cc(C(=O)O)c(=O)cc2C)c1 | – | inactive: 21.7%
Cc1nc2ccccc2c2oc(C(=O)NCC3CCCO3)cc12 (configuration not stated) | inconclusive: 17.8 µM [inhibitor, single point] | –
CCCn1c(=O)[nH]c(=O)c2c(C(=O)OCC)cc(-c3cccs3)nc21 | inconclusive: 31.6 µM [inhibitor, single point] | –
Fc1ccc(CCNCc2ccccc2Cl)cc1 | – | inactive: -4.6%
S=C(c1ccc2c(c1)OCO2)N1CCCCCC1 | – | inactive: -27.4%
CCc1ccc(NC(=S)NCc2cccnc2)cc1 | – | inactive: -6.45%
Oc1ccc(-c2[nH]ncc2-c2ccc(Br)cc2)c(O)c1 | – | inactive: -15%
O=C(c1cc2nc(-c3ccccc3)cc(C(F)(F)F)n2n1)N1CCCC1 | – | inactive: -9.52%
Cc1nn(-c2ccccc2)c(C)c1NC(=O)COc1cc(F)ccc1[N+](=O)[O-] | inconclusive: 14.1 µM [inhibitor, single point] | –
COc1ccc(OC)c(-c2cc(C(=O)NCc3ccco3)no2)c1 | inconclusive: 3.55 µM [inhibitor, partial curve] | –
CCS(=O)(=O)NCC(c1cccnc1)N1CCN(c2ccccc2OC)CC1 (configuration not stated) | – | inactive: -0.254%

Structure (SMILES) | Potency | activity change, negative = inhibition
CC1CCCCN1S(=O)(=O)c1ccc(NC(=O)c2cccc(-n3cnnn3)c2)cc1 (configuration not stated) | inconclusive: 20 µM [inhibitor, single point] | –
Cc1nn2c(N)c(C#N)cnc2c1-c1ccc(Cl)cc1 | – | inactive: -18.9%
COC(=O)n1c(=O)oc2ccccc21 | – | inactive: 2.78%
CC/C(=C(/CC)c1ccc(O)cc1)c1ccc(O)cc1 | inconclusive: 35.5 µM [inhibitor, partial curve, poor fit] | –
CCCc1cc(=O)oc2c(C)c(OCC(=O)NCCCN3CCOCC3)ccc12 | – | inactive: -5.51%
O=C(Cn1ncc(Cl)c(Cl)c1=O)c1ccc2c(c1)OCCO2 | active: 2 µM | –
Cc1csc2nc(CSc3ccc(Cl)cc3)cn12 | – | inactive: 8.37%
CCN(CC)c1ccc(/C=N/Nc2nc3ccccc3[nH]2)cc1 | active: 12.6 µM | –
CCC1CCc2c(sc(NC(=O)c3ccoc3C)c2C(N)=O)C1 (configuration not stated) | active: 5.01 µM | –
CCCCC(CC)C(=O)Nc1ncc([N+](=O)[O-])s1 (configuration not stated) | inconclusive: 10 µM [inhibitor, partial curve] | –
Cc1ccc(N2CCN(S(=O)(=O)c3cccs3)CC2C)cc1 (configuration not stated) | inconclusive: 22.4 µM [inhibitor, single point] | –
CC(=O)OCCNc1cc(SC(C)C)c2nonc2c1[N+](=O)[O-] | – | inactive: -23.8%
CCCCS(=O)(=O)Nc1ccc2c(c1)ncn2C1CCCCC1 | inconclusive: 31.6 µM [inhibitor, single point] | –
Cc1ccc(-c2nc3c(=O)n(-c4ccccc4)c4c(c(=O)n(C)c(=O)n4C)c3o2)cc1 | – | inactive: -18.1%
COc1ccc(NC(=O)CSc2nc3ccccc3c(=O)n2CCCC(=O)NCC2CCCO2)c(OC)c1 (configuration not stated) | inconclusive: 20 µM [inhibitor, single point] | –
CCc1ccc(NC(=S)NC2CC3CCCC(C2)N3Cc2ccccc2)cc1 (configuration not stated) | active: 10 µM | –
CCOc1ccc(CC2NCCc3cc(OCC)c(OCC)cc32)cc1OCC (configuration not stated) | active: 6.31 µM | –
Cc1ccccc1CN(c1ccc(C(=O)Nc2ccccc2C(=O)NCc2ccco2)cc1)S(C)(=O)=O | inconclusive: 5.01 µM [inhibitor, single point] | –
Cc1nnc(NC(=O)CSc2nccn2-c2cccc(C)c2C)s1 | inconclusive: 3.55 µM [inhibitor, full curve] | –
O=C(O)CSc1nc2c(c(C(F)(F)F)n1)CCCC2 | inactive | –
Cc1ccc2cc3c(nc2c1)N(c1ccccc1)CC3 | inconclusive: 10 µM [inhibitor, partial curve] | –
CC1CCCC(C)N1/N=C/c1c[nH]c2ccc(Br)cc12 (configuration not stated) | – | inactive: -12.5%
Cc1ccc(NS(=O)(=O)c2cccc(C(=O)NCC(c3cccs3)N3CCOCC3)c2)cc1 (configuration not stated) | inconclusive: 10 µM [inhibitor, partial curve] | –
CCc1ccc2c(c1)cc(CN(C(=S)Nc1ccccc1C)C1CC1)c1nnnn12 | – | inactive: -7.75%
CC(=O)N1c2ccc(S(=O)(=O)N3CCC(C(=O)Nc4cccc(C(F)(F)F)c4)CC3)cc2CC1C (configuration not stated) | active: 2.51 µM | –
Cc1ccc2c(Cn3ccnc3)cc(=O)oc2c1C | – | inactive: 5.26%

Structure (SMILES) | Potency | activity change, negative = inhibition
COc1ccccc1N1N=C(c2ccc([N+](=O)[O-])cc2)CC1c1ccccc1 (configuration not stated) | inconclusive: 7.94 µM [inhibitor, partial curve] | –
CCOc1ccc2cc(C3CC(c4ccco4)=NN3S(C)(=O)=O)c(Cl)nc2c1 (configuration not stated) | inconclusive: 15.8 µM [inhibitor, single point] | –
O=C(Nc1ccc(Cl)c(Cl)c1)C1=Cc2ccccc2OC1 | inconclusive: 15.8 µM [inhibitor, single point] | –
CCCCN(C(=O)C1CCN(C(=O)c2ccccc2C)CC1)c1c(N)n(CCCC)c(=O)[nH]c1=O | – | inactive: 0.942%
COc1ccc(Nc2nc(-c3sc(C)nc3C)cs2)cc1 | active: 8.91 µM | –
CCOC(=O)C1CCCN(C(=O)c2cc3c(-c4cccc(OC)c4)nn(C)c3s2)C1 (configuration not stated) | inconclusive: 11.2 µM [inhibitor, single point] | –
COCCNC(=O)/C(C#N)=C/c1c(N2CCN(c3cccc(Cl)c3)CC2)nc2c(C)cccn2c1=O | inconclusive: 31.6 µM [inhibitor, single point] | –
CCCN(CC(=O)Nc1ccc(Cl)cc1Cl)C(=O)/C=C/c1cccc([N+](=O)[O-])c1 | inconclusive: 11.2 µM [inhibitor, single point] | –
Cc1[nH]c2ccccc2c1N=Nc1ccccc1F | active: 10 µM | –
COc1ccccc1N(CCOc1ccccc1)S(=O)(=O)c1ccccc1 | inconclusive: 10 µM [inhibitor, partial curve] | –
S=c1[nH]nc(-c2n[nH]c3c2CCC3)n1/N=C/C=C/c1ccccc1 | – | inactive: 31.5%
COC(=O)C1OC(OC2CC[C@]3(C)C(CC[C@@]4(C)[C@@H]3CC=C3[C@@H]5CC(C)(C)CC[C@]5(C(=O)OC5OC(CO)C(O)C(O)C5O)CC[C@]34C)C2(C)C)C(O)C(O)C1O[C@H]1OCC(O)C(O)C1O (some centres not stated) | active: 10 µM | –
COc1ccc(N(C)S(=O)(=O)c2cccc(C(=O)Nc3ccc(N4CCOCC4)cc3)c2)cc1 | inconclusive: 2.24 µM [inhibitor, full curve] | –
COc1ccc(OCc2cc(C(=O)NC(C)Cc3cnccn3)no2)c(Cl)c1 (configuration not stated) | – | inactive: -22.8%
CCOC(=O)N1CCN(Cc2nc3cc(NC(=O)c4ccco4)ccc3n2C)CC1 | inconclusive: 22.4 µM [inhibitor, single point] | –
Cn1nc(C(=O)N2CCN(c3ccc(Cl)cc3)CC2)c2c1-c1ccccc1S(=O)(=O)C2 | inconclusive: 22.4 µM [inhibitor, single point] | –
CON(C)C(=O)Nc1ccc(Cl)cc1 | – | inactive: -0.398%
CC(C)(C)NC(=O)CN(Cc1ccc2c(c1)OCO2)C(=O)CCC(=O)Nc1nccs1 | – | inactive: 3.05%
O=C(CSc1nnc(-c2cccc(F)c2)o1)N1CCOCC1 | – | inactive: 11.7%
O=C(O)c1ccccc1C(=O)N1CCc2c([nH]c3ccccc23)C1C(F)(F)F (configuration not stated) | – | inactive: 0.847%
COc1ccccc1NC(=S)N1CCC(c2nc3cc(C)c(C)cc3[nH]2)CC1 | – | inactive: 8.88%
CCOC(=O)c1c(NC(C)=O)sc2c1CCN(Cc1ccccc1)C2 | inconclusive: 10 µM [inhibitor, partial curve] | –
O=S(=O)(c1ccc(Br)cc1)c1nc(-c2ccccc2)oc1NCCN1CCOCC1 | inconclusive: 31.6 µM [inhibitor, single point] | –
CN(C)c1cccc(C(=O)OCC(=O)c2ccc[nH]2)c1 | inconclusive: 31.6 µM [inhibitor, single point] | –
O=C1Cc2ccccc2Sc2cc(OCCCN3CCCCC3)ccc21 | inconclusive: 11.2 µM [inhibitor, partial curve] | –
